Test [1] has as its system C57BL6/J mice. Briefly: Tail bleeding time in anesthetized mice. The format is in vivo, mouse. The procedure:
(§1) To determine if neutrophils participated in hemostasis in vivo standardized bleeding time in mice was examined after manipulating the number of circulating neutrophils. Briefly, C57BL6/J wild-type mice were injected intraperitoneally with anti-neutrophil antibody (Gr-1, 0.25 mg) or isotype control. Two days later mice were anesthetized with ketamine (80 mg/kg)/xylazine (13 mg/kg) and tail bleeding was performed by amputating a 3 mm section of the distal tail and immersing it in 37° C. PBS. The time to visual cessation of bleeding was recorded. At the end of each experiment, blood was obtained by retro-orbital puncture and complete blood counts determined by automated cell counter (HemaVet).
(§2) Briefly, C57BL6/J mice were treated with a single intraperitoneal injection of CYP (50 mg/kg or control vehicle) followed by daily subcutaneous injection of G-CSF (1 μg or control vehicle) for 3 days. Three days after CYP injection, tail bleeding time was assessed in anesthetized mice (ketamine 100 mg/kg intramuscular injection). Leukocyte counts were determined by automated cell counting and manual differential.
(§3) Mice were treated for 3 consecutive days by SQ injection of vehicle or GCSF (1 μg). […] In each experimental series, bleeding time was determined 30 minutes after IV injection after amputating the distal 3 mm section of tail.

The subject of test [2] is platelet aggregation in platelet rich plasma with neutrophils (PMN). Briefly: TRAP-induced impedance aggregometry of platelet rich plasma reconstituted with cultured neutrophils. The note with it: for TRAP-induced platelet aggregation in presence of cytokine-treated neutrophils: neutrophils cultured 24 hours with cytokine 10 ng/ml, compared with PRP alone or vehicle-treated neutrophils, 15 μM TRAP.

Test [3] concerns C57BL6/J mice. Briefly: Ferric chloride mesenteric microvascular injury, time to first thrombus by intravital fluorescence microscopy. The format is in vivo, mouse. The procedure: We sought to determine the in vivo effect of exogenous IL-6 on thrombus formation. Microvascular thrombus formation was assessed using intravital fluorescence microscopy as previously described^21 with modification. Briefly, C57BL6/J mice were treated with IL-6 (100 ng/100 μl) or vehicle by intramuscular injection on two consecutive days. Two days after the first injection, mice were anesthetized with ketamine/xylazine and injected intravenously with rhodamine-6-G (50 μl of 0.05% solution) to label circulating leukocytes^22. Mesentery was exteriorized through a midline abdominal incision, and arterioles (60-80 μm) and venules (120-150 μm) were visualized using an inverted fluorescence microscope (Nikon). Endothelial damage was induced by topical application of ferric chloride (250 or 500 μM) and images of leukocyte adherence to damaged endothelium and incorporation into thrombi were recorded with a digital camera (Retiga). Time to formation of first thrombus, defined as a thrombus >10 μm in diameter, was determined from digital images. […]
C57BL6/J mice were anesthetized with ketamine/xylazine and injected intravenously with an inhibitor of cathepsin G, Z-Gly-Leu-Phe-CMK (50 μl of 4 mM solution to achieve ˜100 μM in vivo), or vehicle. […] Time to first thrombus formation was determined from digital images obtained using intravital fluorescence microscopy as described above.

The next test deals with platelet aggregation. Briefly: Arachidonic acid-induced platelet aggregation (preliminary experiments). The format is cell-based. The note with it: 30 μM aspirin.
A further test deals with cathepsin G. Briefly: Neutrophil expression and release of cathepsin G by Western blotting. The format is cell-based, human. The procedure:
Neutrophil expression and release of cathepsin G in the absence and presence of IL-6 pre-treatment was examined. Briefly, neutrophils were isolated by histopaque density centrifugation and cultured in the absence or presence of IL-6 for 24 hours as described above. Neutrophil expression of cathepsin G was determined from lysates of IL-6-treated and vehicle-treated PMNs as follows: Cultured cells were washed, resuspended in lysis buffer (0.1% SDS, 150 mM NaCl, 50 mM Tris-HCl, 2 mM EDTA, 10 μg/ml aprotinin, 10 μg/ml leupeptin, 1 mM PMSF, 1 mM Na3VO4), and proteins separated by SDS-PAGE (10 μg protein/lane on 10% polyacrylamide gel). Proteins were transferred to nitrocellulose membranes and probed with goat-anti-human cathepsin G antibody (Santa Cruz Biotechnology) followed by HRP-conjugated rabbit anti-goat secondary antibody (Santa Cruz Biotechnology). Proteins were visualized by enhanced chemiluminescence and bands quantified by densitometry. Neutrophil release of cathepsin G was determined by Western blotting supernatants obtained from TRAP-stimulated aggregation samples of PRP alone, PRP reconstituted with vehicle-treated PMN, and PRP reconstituted with IL-6-treated PMN.

The test system of test [4] is platelet aggregation in platelet rich plasma with lymphocytes. Briefly: Impedance aggregometry of platelet rich plasma reconstituted with lymphocytes. Conditions: lymphocytes cultured 24 hours with IL-6 10 ng/ml. The format is cell-based, human. An excerpt:
To gain perspective on the specificity of leukocyte subtype for enhancement of platelet activation, the effect of lymphocytes on platelet aggregation was examined in vitro. […] In the presence of lymphocytes, diminished platelet aggregation in response to collagen was observed and IL-6 had no impact.

In test [5] the test system is circulating neutrophils, monocytes, lymphocytes. Briefly: Blood cell counts in treated mice. The format is in vivo, mouse. The procedure: as §1, §2, §3
The mark [6] stands for this setting: Example 11, FIG. 13, 30 minutes after IV injection, aspirin 50 μl of 1000 μM, C36H33N2O6P 50 μl of 20 μM.
Where [7] appears, read: Example 6, FIG. 8, 20 min incubation, Z-Gly-Leu-Phe-CMK 100 μM, aspirin 30 μM.

Peptide text beside a SMILES is read from it. * marks the point of attachment. Cbz = O=C(OCc1ccccc1)*; CH2Cl = ClC*

`CN(C(=O)c1cc2ccccc2cc1C(=O)C(c1cccc2ccccc12)P(=O)(O)O)C1CCN(C(=O)c2ccccc2)CC1` (stereo not shown) [C36H33N2O6P]: the “tail bleeding time, inhibitor in mice given vehicle for GCSF” value in the test with C57BL6/J mice [1] (setting [6]) is “prolonged bleeding time”.
In the case of `CC(C)C[C@H](NC(=O)CNC(=O)OCc1ccccc1)C(=O)N[C@@H](Cc1ccccc1)C(=O)CCl` [Z-Gly-Leu-Phe-CMK, Z-Gly-Leu-Phe-chloromethyl ketone] (Cbz-Gly-Leu-Phe-CH2Cl), in test [2] (setting [7]), the “effect of inhibitor on TRAP-induced aggregation in presence of IL-6-treated neutrophils” value is on record as “prevented IL-6-treated neutrophils from augmenting aggregation compared to vehicle-treated neutrophils” and the “effect of inhibitor on TRAP-induced aggregation in presence of vehicle-treated neutrophils” value is recorded as “attenuated compared but remained greater than in PRP alone”. Also, in the test on C57BL6/J mice [3] (Z-Gly-Leu-Phe-CMK 50 μl of 4 mM solution intravenously, 500 μM ferric chloride), the “thrombus formation in vivo (time to first thrombus)” value was “diminishes capacity for thrombus formation in vivo”.
In the case of `CC(=O)Oc1ccccc1C(=O)O` [aspirin], the “arachidonic acid-induced platelet aggregation” value in the test with platelet aggregation was “abolished arachidonic acid-induced platelet aggregation”. In addition, in test [2] (setting [7]), the “effect of inhibitor on TRAP-induced aggregation in presence of vehicle-treated neutrophils” value was “did not alter the pro-aggregatory effect of vehicle-treated neutrophils”. In addition, the “TRAP-induced platelet aggregation with increasing neutrophil concentrations, vs DMSO vehicle” value in test [2] (Example 10, FIG. 12, aspirin 30 μM, C36H33N2O6P 500 nM, up to 20×10^3 neutrophils/μl) was “no significant difference between vehicle and aspirin-treated samples at any of the neutrophil concentrations”. In the test on C57BL6/J mice [1] (setting [6]), the “tail bleeding time, inhibitor in GCSF-treated (neutrophilia) mice” value was “no different from vehicle/vehicle controls” and the “tail bleeding time, inhibitor in mice given vehicle for GCSF” value is “longer bleeding times than mice treated with both vehicles”.
For “IL-1β: pro-inflammatory cytokine interleukin 1-beta”, the “TRAP-induced platelet aggregation in presence of cytokine-treated neutrophils” value in test [2] is on record as “did not modify the effect of PMN on platelet aggregation”.
Consider “IL-6: inflammatory cytokine interleukin 6”, for which the “neutrophil expression of cathepsin G” value in the test with cathepsin G (IL-6 10 ng/ml 24 hours, cell lysates) is on record as “increases neutrophil expression of cathepsin G”. In the test on cathepsin G (PMNs pre-treated with IL-6, supernatants of TRAP-stimulated aggregation samples), the “neutrophil release of cathepsin G in presence of activated platelets” value is recorded as “release is enhanced”. Moreover, in test [4], the “TRAP-induced platelet aggregation in presence of IL-6-treated lymphocytes” value is recorded as “no significant effect on aggregation” and the “collagen-induced platelet aggregation in presence of IL-6-treated lymphocytes” value was “no impact”. In addition, in the test on C57BL6/J mice [3] (IL-6 100 ng/100 μl intramuscular on two consecutive days, vs vehicle), the “shortening of time to formation of first thrombus (>10 μm)” value is on record as “greater than 50%”.
On to TNFα, for which the “TRAP-induced platelet aggregation in presence of cytokine-treated neutrophils” value in test [2] is reported as “did not modify the effect of PMN on platelet aggregation”.

B1: G-CSF: granulocyte colony stimulating factor; stimulates the bone marrow to produce neutrophils (protein, UniProt P09919 31-207, looked up)
Granulocyte …: TPLGPASSLPQSFLLKCLEQVRKIQGDGAALQEKLVSECATYKLCHPEELVLLGHSLGIPWAPLSSCPSQALQLAGCLSQLHSGLFLYQGLLQALEGISPELGPTLDTLQLDVADFATTIWQQMEELGMAPALQPTQGAMPAFASAFQRRAGGVLVASHLQSFLEVSYRVLRHLAQP
Consider B1, for which the “neutrophil counts in CYP-treated mice” value in test [5] (Example 8, CYP/G-CSF group) is listed as 0.80±0.16 ×10^3/μl. Also, the “number of blood neutrophils” value in test [5] (Example 11, third treatment day, GCSF 1 μg SQ 3 days or vehicle) is 4.90±1.25 ×10^3/μl. Further, the “tail bleeding time in CYP-treated mice” value in the test with C57BL6/J mice [1] (Example 8, FIG. 10, G-CSF 1 μg daily for 3 days after CYP 50 mg/kg) is “restored bleeding time to baseline”.

(Values after patent US9585899B2, “Method of inhibiting platelet aggregation and clot formation” (The Johns Hopkins University, priority 2007, dated 2017).)
